In patent publication US10894817B2, “Fatty acid modified urocortin-2 analogs for the treatment of diabetes and chronic kidney disease” (priority 2016, dated 2021):
At least one compound was matched to its structure with a doubt left. Marks after values point to notes of the source that are not given here. Some of these results come from one statement about several compounds together. Starred links: 1 amine or outer side, 2 acyl side, 3 side chain; linkers in the order of their positions; H or OH if unused. Non-standard residues stand in square brackets, D forms with d. Residues, ends and D or L forms follow the SMILES beside them. Groups on a side chain read outwards from the residue. *: point of attachment. C20 diacid = O=C(O)CCCCCCCCCCCCCCCCCCC(=O)*; γGlu = O=C(O)[C@H](CCC(=O)[*:2])N[*:1]; NMeI = CC[C@H](C)[C@H](NC)C(=O)O; AEEA = NCCOCCOCC(=O)O

Columns and labels:
[1] = target: T1, human CRHR2b (Homo sapiens, UniProt Q13324); assay: human CRHR2b cell-based cAMP assay
T1 construct: expressed in transfected cells; host or cells: Chinese Hamster Ovary (CHO) cells, transient transfection
T1 sequence (Q13324 1-438 isoform Q13324-2): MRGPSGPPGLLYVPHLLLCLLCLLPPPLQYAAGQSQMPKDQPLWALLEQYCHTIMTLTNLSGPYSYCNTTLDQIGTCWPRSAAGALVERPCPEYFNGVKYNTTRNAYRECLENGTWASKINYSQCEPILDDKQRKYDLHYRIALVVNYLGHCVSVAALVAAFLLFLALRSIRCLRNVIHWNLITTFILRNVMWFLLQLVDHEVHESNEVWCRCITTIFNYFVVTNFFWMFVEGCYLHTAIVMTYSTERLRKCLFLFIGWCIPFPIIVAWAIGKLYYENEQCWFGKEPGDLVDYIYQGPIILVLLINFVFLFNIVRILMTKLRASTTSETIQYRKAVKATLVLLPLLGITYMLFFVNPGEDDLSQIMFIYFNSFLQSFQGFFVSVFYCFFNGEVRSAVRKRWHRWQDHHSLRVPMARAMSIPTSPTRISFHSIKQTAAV
Protocol: CRHR agonistic activity is measured in a cell-based cAMP assay. Serial dilutions of the test peptides are made in assay buffer containing Hank's Balanced Salt Solution (HBSS, without phenol red) supplemented with 20 mM HEPES and 0.05% lactalbumin enzymatic hydrolysate (LAH) (“assay buffer”). […] A one to three dilution of the test peptides is used in both assays. Receptor over-expressing Chinese Hamster Ovary (CHO) cell line is used for the human CRHR2b assay. […] AF011406.1). Forty-eight hours after the transfection, the cells are centrifuged to remove the culture media and resuspended in fetal bovine serum containing 5% DMSO. They are cryofrozen and stored in vials in liquid nitrogen (20×10^6 cells/ml/vial). On the day of the assay, cells are thawed and resuspended in cold 30 ml culture media supplemented with 20 mM HEPES. The cells are then centrifuged to remove the media and washed once with HBSS supplemented with 20 mM HEPES. Finally, following the last centrifugation, the cells are resuspended in assay buffer. Thirty-thousand cells are used in the human CRHR2b assay for each treatment. The cells are dispensed into Costar 96-well black polystyrene half area EIA/RIA plates (Corning Incorporated, Corning, N.Y.) followed by the addition of the diluted peptides, each at a volume of 20 μL. The agonist induced cAMP levels are detected using a HTRF cAMP Dynamic 2 kit (CisBio, Bedford, Mass.). After incubation at 37° C. for 30 min, the assay is stopped by cell lysis via the addition of 20 μL of d2-labeled cAMP and followed by 20 μL of cryptate-labeled anti-cAMP antibody, as described by the manufacturer. Cellular cAMP (as a result of agonist stimulation) competes with the d2-labeled cAMP for binding to the antibody. HTRF detection is performed on an Envision plate reader (Perkin Elmer Life and Analytical Sciences, Waltham, Mass.) by measuring ratiometric emission at 620 and 665 nm after excitation at 320 nm. The data are converted to picomoles of cAMP using a standard curve obtained from the same assay performed with varying concentrations of unlabeled cAMP. […] The data are analyzed using a Curve Fitting Tool to calculate ED50. Numeric values shown below in Table 1 represent the mean of multiple runs (number of runs shown in parentheses) following the mean value±SEM.

[2] = system: remnant kidney mice; assay: Mouse remnant kidney model of hypertensive nephropathy (Example 2, 9 weeks); assay type: in vivo; details: for Initial Body Weight: baseline
Protocol: A mouse remnant kidney model (“remnant”) involving surgical reduction of ¾ of the entire renal mass is used as a preclinical model of hypertensive renal disease (Kidney Int. 64(1):350-5, (2003)).
Surgical reduction of renal mass (N=40 mice) or sham surgery is performed by Taconic, Inc. in male 129S6 mice at 8-9 weeks of age (obtained by Taconic, Inc.). Randomization into 5 equivalent groups of 8 remnant kidney mice is done at 15 weeks post-surgery by urine albumin to creatinine ratio (ACR) and body weight.
Study duration is 9 weeks. After 2 weeks of dosing, a necropsy is done on all groups except the 144 nmol/kg group of Example 2 which continues to be monitored for ACR for another 7 weeks to determine the durability of the effects of the compound of Example 2 on urine ACR.
For all groups except the 144 nmol/kg group of Example 2, the endpoints of the study are body weight, kidney weight, heart weight, serum creatinine and urine ACR. For the 144 nmol/kg group of Example 2, the endpoints are body weight and urine ACR. There are no deaths during the study.
Body weight is determined at baseline and at termination with a Metler Toledo Balance. The heart and kidney are removed at necropsy and weighed on a Metler Toledo Balance. Blood (500 ul) is collected from the retro-orbital sinus at termination under isoflurane anesthesia. The clotted blood is centrifuged to obtain serum. Serum is analyzed for BUN and creatinine on a Roche Hitachi Modular Analytics P analyzer with reagents from Roche.
A spot urine collection to measure urine ACR is performed at baseline (−1), 1 and 2 weeks for the saline and all the dose levels of the compound of Example 2. Spot urine collections are also collected for the 144 nmol/kg dose level of Example 2 at 4, 6 and 9 weeks. Spot urine collections are done by placing mice on top of a 96 well polypropylene microplate to collect their urine over a 2 hr time period. The collected urine is placed on ice, centrifuged and subjected to albumin and creatinine analysis.
Urine albumin and creatinine are determined on a Roche Hitachi Modular Analytics P analyzer. Urine creatinine is determined with the Creatinine Plus reagent by Roche. For urine albumin, the Roche Microalbumin assay is modified to adapt the calibration curve for measuring urine albumin in mice. The assay limit of detection for albumin in urine is 4.9 mcg per ml.
All data are analyzed with JMP v.8.0 software (SAS Institute). Statistical analysis of albuminuria (ACR) was done by the following: 1) data were analyzed on log scale to stabilize variance over different treatment groups 2) data analysis was carried out in JMP v.8.0 using a ANOVA and a Dunnett's t test at each time point. All other data were evaluated by ANOVA with log transformed data if the data were skewed and a Students unpaired t test. Statistical outliers were removed prior to analysis. A P value of <0.05 was considered statistically significant.

[3] = system: db/db mice; assay: In vivo leptin receptor deficient (db/db) mice, chronic dose administration; details: male db/db mice, 14 day, 5 injections
[4] = 7.2 nmol/kg s.c. three times weekly for 2 weeks
[5] = 24 nmol/kg s.c. three times weekly for 2 weeks
[6] = 72 nmol/kg s.c. three times weekly for 2 weeks

CC[C@H](C)[C@H](NC)C(=O)N[C@H](C(=O)N[C@H](C(=O)N[C@@H](CO)C(=O)N[C@@H](CC(C)C)C(=O)N[C@@H](CC(=O)O)C(=O)N[C@H](C(=O)N1CCC[C@H]1C(=O)N[C@H](C(=O)NCC(=O)N[C@@H](CC(C)C)C(=O)N[C@@H](CC(C)C)C(=O)N[C@@H](CCC(N)=O)C(=O)N[C@H](C(=O)N[C@@H](CC(C)C)C(=O)N[C@@H](CC(C)C)C(=O)N[C@@H](CCC(=O)O)C(=O)N[C@@H](CCC(N)=O)C(=O)N[C@@H](CCC(=O)O)C(=O)N[C@@H](CCCCN)C(=O)N[C@@H](CCC(N)=O)C(=O)N[C@@H](CCC(=O)O)C(=O)N[C@@H](CCCCN)C(=O)N[C@@H](CCC(=O)O)C(=O)N[C@@H](CCCCN)C(=O)N[C@@H](CCC(N)=O)C(=O)N[C@@H](CCC(N)=O)C(=O)N[C@@H](C)C(=O)N[C@@H](CCCCNC(=O)CC[C@H](NC(=O)COCCOCCNC(=O)COCCOCCNC(=O)CC[C@H](NC(=O)CC[C@H](NC(=O)CCCCCCCCCCCCCCCCCCC(=O)O)C(=O)O)C(=O)O)C(=O)O)C(=O)N[C@H](C(=O)N[C@@H](CC(N)=O)C(=O)N[C@@H](C)C(=O)N[C@@H](CCC(N)=O)C(=O)N[C@H](C(=O)N[C@@H](CC(C)C)C(=O)N[C@@H](C)C(=O)N[C@@H](CCC(N)=O)C(=O)N[C@H](C(N)=O)C(C)C)[C@@H](C)CC)[C@@H](C)O)[C@@H](C)CC)[C@@H](C)CC)C(C)C)[C@@H](C)O)C(C)C [Compound 65] (H-[NMeI]VTSLDVPIGLLQILLEQEKQEKEKQQAK([γGlu-AEEA-AEEA-γGlu-γGlu-C20 diacid])TNAQILAQV-NH2)
EC50 ([1]; cAMP assay, Table 26, compounds of Example 9, read-out: hCRHR2b Average EC50): 1.24 nM

CC[C@H](C)[C@H](NC(C)=O)C(=O)N[C@H](C(=O)N[C@@H](CC(C)C)C(=O)N[C@@H](CO)C(=O)N[C@@H](CC(C)C)C(=O)N[C@@H](CC(=O)O)C(=O)N[C@H](C(=O)N1CCC[C@H]1C(=O)N[C@H](C(=O)NCC(=O)N[C@@H](CC(C)C)C(=O)N[C@@H](CC(C)C)C(=O)N[C@@H](CCC(N)=O)C(=O)N[C@H](C(=O)N[C@@H](CC(C)C)C(=O)N[C@@H](CC(C)C)C(=O)N[C@@H](CCC(=O)O)C(=O)N[C@@H](CCC(N)=O)C(=O)N[C@@H](CCC(=O)O)C(=O)N[C@@H](CCCCN)C(=O)N[C@@H](CCC(N)=O)C(=O)N[C@@H](CCC(=O)O)C(=O)N[C@@H](CCCCN)C(=O)N[C@@H](CCC(=O)O)C(=O)N[C@@H](CCCCN)C(=O)N[C@@H](CCC(N)=O)C(=O)N[C@@H](CCC(N)=O)C(=O)N[C@@H](C)C(=O)N[C@@H](CCCCNC(=O)COCCOCCNC(=O)COCCOCCNC(=O)CC[C@H](NC(=O)CC[C@H](NC(=O)CCCCCCCCCCCCCCCCCCC(=O)O)C(=O)O)C(=O)O)C(=O)N[C@H](C(=O)N[C@@H](CC(N)=O)C(=O)N[C@@H](C)C(=O)N[C@@H](CCC(N)=O)C(=O)N[C@H](C(=O)N[C@@H](CC(C)C)C(=O)N[C@@H](C)C(=O)N[C@@H](CCC(N)=O)C(=O)N[C@H](C(N)=O)C(C)C)[C@@H](C)CC)[C@@H](C)O)[C@@H](C)CC)[C@@H](C)CC)C(C)C)C(C)C [Example 2] (Ac-IVLSLDVPIGLLQILLEQEKQEKEKQQAK([AEEA-AEEA-γGlu-γGlu-C20 diacid])TNAQILAQV-NH2)
CRHR2 agonist activity in a cAMP assay ([1]; statement in words): have CRHR2 agonist activity | Initial Body Weight ([2]; 7.2 nmol/kg group): 26.0 ± 0.6 g | Final Body Weight [2, 4]: 25.5 ± 1.2 g | Heart Weight [2, 4]: 172 ± 11 mg | Kidney Weight [2, 4]: 204 ± 12 mg | Serum BUN [2, 4]: 49 ± 3 mg/dL | Serum Creatinine [2, 4]: 0.240 ± 0.010 mg/dL | ACR ([2]; 7.2 nmol/kg, 1 week): 1215 ± 321 µg/mg | ACR ([2]; 7.2 nmol/kg, 2 week): 630 ± 200 ^a mcg/mg | ACR ([2]; 7.2 nmol/kg, −1 week (baseline)): 2273 ± 576 µg/mg | Initial Body Weight ([2]; 24 nmol/kg group): 26.5 ± 0.9^ g | Final Body Weight [2, 5]: 24.0 ± 0.5 a g | Heart Weight [2, 5]: 142 ± 4 ^a mg | Kidney Weight [2, 5]: 188 ± 8 ^ mg | Serum BUN [2, 5]: 44 ± 1 ^a mg/dL | Serum Creatinine [2, 5]: 0.213 ± 0.008 ^a mg/dL | ACR ([2]; 24 nmol/kg, 1 week): 636 ± 173 ^a mcg/mg | ACR ([2]; 24 nmol/kg, 2 week): 246 ± 50 ^a mcg/mg | ACR ([2]; 24 nmol/kg, −1 week (baseline)): 2228 ± 410 µg/mg | Initial Body Weight ([2]; 72 nmol/kg group): 25.7 ± 0.8^ g | Final Body Weight [2, 6]: 24.8 ± 0.4 ^a g | Heart Weight [2, 6]: 151 ± 4 ^a mg | Kidney Weight [2, 6]: 195 ± 6 mg | Serum BUN [2, 6]: 46 ± 3 ^a mg/dL | Serum Creatinine [2, 6]: 0.228 ± 0.014^ mg/dL | ACR ([2]; 72 nmol/kg, 1 week): 1053 ± 230 µg/mg | ACR ([2]; 72 nmol/kg, 2 week): 304 ± 68 ^a mcg/mg | ACR ([2]; 72 nmol/kg, −1 week (baseline)): 2141 ± 416 µg/mg | ACR ([2]; 144 nmol/kg dosed 2 weeks, 4 weeks): 266 ± 52 µg/mg | ACR ([2]; 144 nmol/kg dosed 2 weeks, 6 weeks): 328 ± 136 µg/mg | ACR ([2]; 144 nmol/kg dosed 2 weeks, 9 weeks): 834 ± 412 µg/mg | Initial Body Weight ([2]; 144 nmol/kg group): 26.3 ± 0.8^ g | Final Body Weight ([2]; 144 nmol/kg s.c. three times weekly for 2 weeks, monitored another 7 weeks): 24.5 ± 0.7 ^a g | ACR ([2]; 144 nmol/kg, 1 week): 889 ± 218 µg/mg | ACR ([2]; 144 nmol/kg, 2 week): 336 ± 85 ^a mcg/mg | ACR ([2]; 144 nmol/kg, −1 week (baseline)): 2271 ± 500 µg/mg | Blood glucose AUC ([3]; 0.3 mg/kg s.c.): 4762 ± 174 mg/dL × day^−1 | Body weight change (% change ± SEM) ([3]; 0.3 mg/kg s.c.): 6.8 ± 1.3 % | Blood glucose AUC ([3]; 0.6 mg/kg s.c.): 4385 ± 144 mg/dL × day^−1 | Body weight change (% change ± SEM) ([3]; 0.6 mg/kg s.c.): 9.7 ± 1%
